This passage reports binding results from publication PMC5309803.

Changes are numbered by the printed parent chain. These are yes or no findings as the source states them, for the method shown. Binding seen in cells or lysates may run through a third protein. Some results given as binding are weak or reduced against the parent protein; the word gives no strength. Where a sequence is shown, tags or fusion partners need not be part of it.

Assay in all cases: co-IP; lysate of co-transfected HEK293 cells; IP with mouse anti-GFP (clones 7.1 and 13.1) on Dynabeads Protein G overnight at 4 °C in IP buffer (50 mM Tris 7.4, 150 mM NaCl, 1 mM EDTA, 0.5% sodium deoxycholate, 1% NP40); western blot with anti-Myc (9E10)
Background: In western blotting, separated proteins are transferred to a membrane and probed.

The target of experiment [1] is T1, GFP-tagged PIH1D3, normal full-length protein (human) (UniProt Q9NQM4).
T1 sequence: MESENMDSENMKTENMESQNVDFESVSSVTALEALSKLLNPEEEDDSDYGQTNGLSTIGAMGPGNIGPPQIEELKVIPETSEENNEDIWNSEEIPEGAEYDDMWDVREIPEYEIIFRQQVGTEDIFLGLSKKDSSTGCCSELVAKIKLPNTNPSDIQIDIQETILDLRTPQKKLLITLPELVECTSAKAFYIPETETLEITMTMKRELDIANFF

Experiment [2] deals with T2, GFP-tagged PIH1D3 p.Glu43* (human) (UniProt Q9NQM4).
T2 sequence: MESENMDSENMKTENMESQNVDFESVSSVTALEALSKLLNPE

In experiment [3] the target is T3, GFP-tagged PIH1D3 p.Trp89* (human) (UniProt Q9NQM4).
T3 sequence: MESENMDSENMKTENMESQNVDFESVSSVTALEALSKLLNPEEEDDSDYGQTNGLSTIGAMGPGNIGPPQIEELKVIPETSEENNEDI

The target in experiment [4] is T4, GFP-tagged PIH1D3 p.Asp133Tyr (human) (UniProt Q9NQM4).
T4 sequence: T1 sequence with D133Y

The next experiment addresses T5, GFP-tagged DNAI2 (human) (UniProt Q9GZS0).
T5 sequence: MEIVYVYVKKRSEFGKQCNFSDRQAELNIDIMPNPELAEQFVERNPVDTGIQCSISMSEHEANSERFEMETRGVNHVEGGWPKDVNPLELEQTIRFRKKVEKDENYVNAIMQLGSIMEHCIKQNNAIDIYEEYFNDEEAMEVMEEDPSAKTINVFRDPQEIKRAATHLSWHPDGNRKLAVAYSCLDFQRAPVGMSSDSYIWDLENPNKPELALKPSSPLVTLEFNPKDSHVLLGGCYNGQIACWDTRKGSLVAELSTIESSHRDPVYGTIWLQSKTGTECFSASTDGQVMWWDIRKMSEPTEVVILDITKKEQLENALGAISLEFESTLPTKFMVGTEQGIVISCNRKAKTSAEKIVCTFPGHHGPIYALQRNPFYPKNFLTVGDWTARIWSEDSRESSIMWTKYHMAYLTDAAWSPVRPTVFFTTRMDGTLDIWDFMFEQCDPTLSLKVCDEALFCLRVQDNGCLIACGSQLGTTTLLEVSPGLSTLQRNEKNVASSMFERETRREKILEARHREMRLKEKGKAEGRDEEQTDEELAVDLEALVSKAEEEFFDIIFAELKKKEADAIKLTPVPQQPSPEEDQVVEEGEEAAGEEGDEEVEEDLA

B1: Myc-tagged DNAI2 (protein, UniProt Q9GZS0-1 1-605)
chain: T5 sequence
For B1, the binding entry is on record as “binds” in experiment [1], “no binding” in experiment [2], “no binding” in experiment [3] and “no binding” in experiment [4].

B2: Myc-tagged wild-type PIH1D3 (protein, UniProt Q9NQM4 1-214)
chain: T1 sequence
Take B2: the binding result with GFP-tagged DNAI2 (human) is “binds”.
